Reference: PubChem BioAssay AID1645882 (National Center for Advancing Translational Sciences (NCATS), 2021)
Out of some 16,000 compounds screened, about 120 (0.75%) were called active. Another 4% or so got no clear call; they are omitted. The call rests on the fitted dose curve; in most records, active means well fitted inhibition curve with a large enough effect; inconclusive means small, poorly fitted or top-dose-only effect; inactive means no such curve, though single readings can be large or run the other way. Some of the results follow.

Target: Rap guanine nucleotide exchange factor 3 (Homo sapiens) (UniProt O95398)
Assay: Validation qHTS for antagonist of cAMP-regulated guanine nucleotide exchange factor 3 (EPAC1);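 further: plate controls were DMSO for no effect and ATA control for full effect; nearly all actives have a fitted effect of over 75% in size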
Settings: EPAC1 Rap1B-BODIPY-GDP exchange, fluorescence; series mostly up to 150 µM; activity change, negative = inhibition: at the top concentration
Outline: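 Nucleotide exchange followed as fluorescence loss when BODIPY-GDP leaves Rap1B (480 nm excitation, 540 nm emission), read at 5 min intervals over 30 min. Reaction: 100 nM EPAC1, 250 nM RAP1B-BODIPY-GDP, 50 uM GDP; ATA and DMSO define normalization.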

Sequence of UniProt O95398 (O95398 whole entry, looked up): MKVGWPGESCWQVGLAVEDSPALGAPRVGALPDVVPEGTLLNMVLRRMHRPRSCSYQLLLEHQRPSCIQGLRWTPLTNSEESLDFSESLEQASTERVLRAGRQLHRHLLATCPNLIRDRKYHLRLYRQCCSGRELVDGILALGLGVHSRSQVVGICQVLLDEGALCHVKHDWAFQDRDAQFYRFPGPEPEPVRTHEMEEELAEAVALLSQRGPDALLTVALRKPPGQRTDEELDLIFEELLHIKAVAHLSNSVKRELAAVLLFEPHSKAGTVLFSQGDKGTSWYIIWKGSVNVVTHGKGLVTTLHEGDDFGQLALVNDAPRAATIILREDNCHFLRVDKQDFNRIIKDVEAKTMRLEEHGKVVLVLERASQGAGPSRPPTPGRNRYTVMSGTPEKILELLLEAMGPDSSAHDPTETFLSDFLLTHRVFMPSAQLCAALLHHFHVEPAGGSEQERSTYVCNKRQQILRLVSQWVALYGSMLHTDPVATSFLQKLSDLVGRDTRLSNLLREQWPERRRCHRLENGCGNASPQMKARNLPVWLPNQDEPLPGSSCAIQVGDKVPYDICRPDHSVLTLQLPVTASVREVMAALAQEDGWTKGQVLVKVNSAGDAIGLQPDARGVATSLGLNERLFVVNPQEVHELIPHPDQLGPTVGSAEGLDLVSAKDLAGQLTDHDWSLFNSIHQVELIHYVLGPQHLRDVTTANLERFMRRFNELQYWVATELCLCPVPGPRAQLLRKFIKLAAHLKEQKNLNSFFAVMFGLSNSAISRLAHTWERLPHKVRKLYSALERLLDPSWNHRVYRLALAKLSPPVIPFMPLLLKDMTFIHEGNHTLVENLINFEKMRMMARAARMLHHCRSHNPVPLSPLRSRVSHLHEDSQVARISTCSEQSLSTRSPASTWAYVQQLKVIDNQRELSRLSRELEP

Activity change, negative = inhibition, inactive:
Cc1ccc(C(=O)N2CCOc3ccc(CN4CCN(Cc5ccccn5)CC4)cc3C2)cc1 -2.43%
CNC(=O)[C@H]1O[C@@H](n2cnc3c(NCc4cccc(I)c4)nc(Cl)nc32)[C@H](O)[C@@H]1O 3.46%
COc1cc(=O)n2c(c1C(=O)N(C)Cc1nonc1C)CCN(Cc1cccc(Cl)c1)CC2 15.4%
COc1ccc(OC)c(-c2ccnc(-n3ncc(C(=O)N(C)CCc4ccccn4)c3C)n2)c1 18.1%
CC(=O)N1CCC2(CCCN(Cc3ccccc3)C2)CC1 23.7%
COc1ccc(C(=O)C[n+]2cc(Br)cc(Br)c2)cc1 13.6%
CNCCCCc1cnc(C)c2[nH]c3ccccc3c12 -0.902%
CCOC(=O)NNc1ccc(N(CC)CC(C)O)nn1 (stereo not given) 37.2%
COc1ccccc1C1CN(Cc2cccc3nccnc23)Cc2ccccc2O1 (stereo not given) 3.13%
C#CCC(Cc1cnc2nc(N)nc(N)c2n1)c1ccc(C(=O)N[C@@H](CCC(=O)O)C(=O)O)cc1 (stereo not given in full) 21.7%
O=C(c1cc(C(F)(F)F)cc(C(F)(F)F)c1)N1CCC2(CCCN(c3ccccn3)C2)CC1 -26.9%
O=[N+]([O-])c1cccc2c[nH]nc12 1.79%
Cn1c(=O)c(-c2cc(F)cc(F)c2)nc2cnc(N3CCNCC3)nc21 0.0874%
CC(C)(C)NCC(O)COc1cccc2[nH]c(=O)[nH]c12 (stereo not given)
NC(=O)C(=O)N/N=C/c1ccc([N+](=O)[O-])o1 15.3%
NC(Cc1cnc[nH]1)C(=O)Nc1ccc2ccccc2c1 (stereo not given) 17.4%
CN(CC[C@@H](Oc1ccc(-c2ccccc2)cc1)c1ccc(F)cc1)CC(=O)O -0.957%
CCCCCCCCCC(=O)O 5.14%
COc1ccc2c(c1)OC(C)CN(CCNC(=O)c1ccc(-n3cccn3)cc1)C2 (stereo not given) 15%
COCC(=O)N1CCC2(CC1)CCN(c1ccncc1)CC2 13.6%
COCCNc1cc(-c2c(C)noc2C)ncn1 9.01%
OCC1OC(n2cnc3c(NCc4ccco4)ncnc32)C(O)C1O (stereo not given) 8.53%
Cc1noc(C)c1-c1ccc2ncnc(N3CCN(C)CC3)c2c1 3.55%
CN(C)c1ccc(-c2cncnc2Nc2ccccc2)cc1 -1.61%
CN(Cc1ccco1)c1ncnc2ccc(-c3ccoc3)cc12 2.76%
CCCCCN=C(N)N/N=C/c1c[nH]c2ccc(OC)cc12
O=C(Nc1ccccc1)N1CCC2(CC1)CCN(C(=O)c1csnn1)CC2 -6.77%
COc1ccc(S(=O)(=O)N(CCO)c2ccccc2CN(C)C/C=C/c2ccc(Cl)cc2)cc1 1.5%
NS(=O)(=O)c1cccc2c1c([N+](=O)[O-])cc1[nH]c(=O)c(=O)[nH]c12 -17.1%
CCC1(C2CCN(C(=O)c3cc(F)ccc3F)CC2)NC(=O)N(CCc2scnc2C)C1=O (stereo not given) 9.99%
CN1CCN(c2ncc3nc(-c4cc(F)cc(F)c4)c(=O)n(CCC#N)c3n2)CC1 11.6%
C[C@@H](CC(=O)O)[C@@H](N)C(=O)O
OC1C=C2CCN3Cc4cc5c(cc4C(C1O)C23)OCO5 (stereo not given) 8.06%
Cc1ccc2nc(N)[nH]c(=O)c2c1Sc1ccncc1 19.5%
CC(C)(C)c1ccc2c(S(=O)(=O)O)c(C(C)(C)C)ccc2c1 12.2%
OCC1(CO)COC(C(Cl)(Cl)Cl)OC1 2.7%
CC1(C)CC2C1CCC1(C)OC2(C)CCC1O (stereo not given) 0.0893%
CCNc1ncc2nc(-c3cc(F)cc(F)c3)c(=O)n(C3CC3)c2n1 4.91%
CC(NNC(=O)c1ccccc1)c1ccccc1 (stereo not given) 13.5%
CS(=O)(=O)OCC(O)C(O)COS(C)(=O)=O (stereo not given) -9.47%
O=C(C[n+]1cccc2cc(Cl)ccc21)c1ccc(Br)cc1 10.5%
O=C(c1cccc(F)c1)N1CCC2(CC1)CCN(c1ncccn1)CC2 7.34%
CC(N)CCCP(=O)(O)O (stereo not given) -1.45%
CC(=O)N(CC(O)CN(C(C)=O)c1c(I)c(C(=O)NCC(O)CO)c(I)c(C(=O)NCC(O)CO)c1I)c1c(I)c(C(=O)NCC(O)CO)c(I)c(C(=O)NCC(O)CO)c1I (stereo not given) 16.8% [at 75.8 µM]
NC(CSCSCC(N)C(=O)O)C(=O)O (stereo not given) 20.1%
Cc1cc(C(=O)Nc2ccccc2-c2nc(CNC(=O)c3cscn3)c(C)o2)c(C)o1 16.7%
CN(C)c1nc(-c2ccoc2)nc2ccccc12 36.5%
Cc1ccccc1-c1nccc(NCCN2CCOCC2)n1 -1.82%
O=C(O)CCCC[C@@H]1SC[C@H]2NC(=O)N[C@@H]12 12.2%
COc1ccccc1CN1CCC2(CC1)CCN(C(=O)c1cccc(F)c1)CC2 13.6%
Cc1cc(C(=O)NCC2CCC3(CCN(Cc4ccc(F)cc4)CC3)O2)n(C)n1 (stereo not given) 16%
CCC(CN)CC(C)CCNCC(O)CNCC(C)CC(CC)CN (stereo not given) 30.6%
Cc1noc(C)c1-c1ccc2ncnc(Nc3ccc(F)cc3)c2c1 -9.07%
O=C(c1cn(C2CCCN(Cc3cccc(Oc4ccccc4)c3)C2)nn1)N1CCCC1 (stereo not given) 7.97%
CC(C(=O)O)c1ccc(C(=O)c2ccccc2)s1 (stereo not given) 12.6% [at 75.8 µM]
O=C1CCN(Cc2ccc(-c3ccccc3)cc2)CCN1Cc1ccccn1 -6.88%
CCCCC[C@H](O)/C=C/C=C\CCCCCCCC(=O)O
COc1cc(=O)n2c(c1C(=O)N(C)Cc1nonc1C)CCN(C(=O)c1cc(C)ccc1C)CC2 16.9%
CC(=O)N1CCC2(CC1)CCN(C(c1ccccc1)c1ccccc1)CC2 4.51%
COc1ccccc1N1CCN(CCCC(=O)c2ccc(F)cc2)CC1 6.48%
NC(=O)NS(=O)(=O)c1ccc(N)cc1 9.56%
CN(C)CCc1cc2c(c3c1ccc1ccccc13)OCO2 -0.692%
COCCn1c(=O)c(-c2ccc(F)cc2)nc2cnc(N3CCOCC3)nc21 10.1%
O=P(O)(O)OP(=O)(O)OP(=O)(O)O 11.5%
CN(C)CC/C=C1/c2ccccc2COc2ccc(CC(=O)O)cc21 15.2%
O=C(c1cnccn1)N1CCC2(CC1)CCN(c1ccncc1)CC2 22.9%
CC(C)(C)[C@H]1CCC(=O)N([C@H](CSc2ccc(Br)cc2)Cc2ccccc2)CC1 -9.89%
O=C1NC(CC(=O)N2CCC(n3c(C4CCC4)nc4cccnc43)CC2)c2ccccc21 (stereo not given) 14.6%
Clc1ccc(N2CCN(Cc3cc4ccccn4n3)CC2)cc1 -7.94% [at 75.8 µM]
O=C(O)C1=CCCN(CCON=C(c2ccccc2)c2ccccc2)C1
Cn1c(=O)c(-c2ccc(Cl)cc2)nc2cnc(N3CCOCC3)nc21 13.1%
O=S(=O)(O)CC(S)CS (stereo not given) -1.12%
COC(=O)c1c(OCc2ccccn2)cc(=O)n2c1CCN(Cc1ccc3c(c1)CCCN3C)CC2 20%
c1ccc(CN(CC2=NCCN2)c2ccccc2)cc1
O=C(c1ccncc1)N1CCC2(CC1)CCN(c1ccccn1)CC2 7.93%
CCN(c1nc(N)c(C(=O)N=C(N)N)nc1Cl)C(C)C -5.71% [at 75.8 µM]
CN(CCO)C(=O)c1cn(C2CCCN(Cc3ccc(C(F)(F)F)cc3)C2)nn1 (stereo not given) 6.83%
CC1CCC(=O)N(CCC#N)CC1 (stereo not given) 14.9%
CCS(=O)(=O)NCc1c(C)ncc2c1CCN(C(=O)c1ccc(F)cc1)C2 0.584%
Nc1ncnc2n[nH]c(Nc3ccc(F)cc3)c12 6.6% [at 75.8 µM]
CC(C)C[C@@H](CSc1ccccc1)N1CCN(CC(C)C)CCC1=O -11.3%
CCCCCCCCCCCCC(=O)N1CCCC[C@H]1CNC(=O)[C@@H](N)CCCCN 3.49%
O=c1c(-c2ccc(Cl)cc2)nc2cnc(N3CCOCC3)nc2n1C[C@H]1CCCO1 1.25%
CC(=O)OCC(=O)[C@]1(O)C(C)CC2C3CCC4=CC(=O)C=C[C@@]4(C)[C@]3(F)C(O)C[C@@]21C (stereo not given in full) -7.49%
Cc1c(C)n(Cc2ccccc2)c2ccc(C(=O)OCCN(C)C)cc12 -3.27%
CC(=O)N1CCC2(CCCN(Cc3nccs3)C2)CC1 16.9%
COc1ccccc1-c1nc(Nc2ccncc2)c2ccccc2n1 10.9%
CC1=CC(=O)CC(C)(C)C1(O)/C=C/C(C)=C\C(=O)O (stereo not given)
O=C(Nc1cccc(F)c1)N1CCC2(CCNCC2)CC1 14%
c1ccc(C(c2ccccc2)N2CC3(CCNCC3)C2)cc1 20.3%
O=C(c1ccncc1)N1CCC2(CC1)CN(c1ccncc1)C2 9.54%
CN1CC[C@@]2(CCCN(C(=O)c3cccc(F)c3)C2)C1 19.4%
COc1cccc(Cn2c(=O)cnc3cnc(Oc4cccc(Cl)c4)nc32)c1 1.56%
COC(=O)C1CCCCN1Cc1ccc2c(c1)CN(Cc1cn[nH]c1-c1ccc(F)cc1)CCO2 (stereo not given) -4.67%
CCCN(CCc1ccccc1)C1CCc2c(O)cccc2C1 (stereo not given)
CNc1ccnc(-c2ccccc2C(F)(F)F)n1 10.3%
N.N.N.N.N.N.N.N.N.N.N.N.N.N.O.O.[Ru+4].[Ru+5].[Ru+5] -13.3% [at 75.8 µM]
Cc1ccccc1-c1ccc(CN2CCc3nnc(CNC(=O)c4ccccn4)n3CC2)cc1 17.2%
CN(C)C/C=C(\c1ccc(Br)cc1)c1cccnc1 7.23%
CN(C)C(=O)CNC(=O)Cc1ccccc1 4.56%
CN1c2ccccc2-c2ccccc2S1(=O)=O 13.9%
COC(=O)C1N2C(=O)N(C)[C@H](C(=O)OC)[C@H]2SC1(C)C (stereo not given in full) 4.83%
NC(=O)c1cccc(N)c1
COCC(=O)N1CCC2(CCCN(C(=O)Nc3ccccc3)C2)CC1 20%
O=C(c1cscn1)N1CCOc2ccc(CN3CCC(Oc4cccnc4)CC3)cc2C1 9.58%
COc1ccc(CN2CCOc3ccc(CN4CCC(Oc5cccnc5)CC4)cc3C2)cc1 9.96%
COc1ccccc1C(=O)N[C@@H]1c2ccccc2C2(CCN(Cc3nc(C(C)C)cs3)CC2)[C@H]1O 0.958%
COc1ccc(CN2CCOc3c(O)cc(-c4cc(C)c5ccc(F)cc5n4)cc3C2)c(O)c1 -20.2%
Cc1noc(C)c1-c1cc(NCCN2CCOCC2)ncn1 5.32%
O=c1c(-c2ccc(O[C@@H]3O[C@H](CO)[C@@H](O)[C@H](O)[C@H]3O)cc2)coc2cc(O)cc(O)c12 -10.6%
